Source: PubChem BioAssay AID1508623 (National Center for Advancing Translational Sciences (NCATS), 2021)
The campaign covered roughly 48,000 compounds. About 450 (0.94%) were called active. Roughly 19% stayed inconclusive and do not appear here. The call rests on the fitted dose curve; in most records, active means well fitted inhibition curve with a large enough effect; inconclusive means small, poorly fitted or top-dose-only effect; inactive means no such curve, though single readings can be large or run the other way. The list shows a part of the results.

Assay: Primary qHTS for Identification of Small Molecule Inhibitors of Huntingtin Promoter Activity; further: nearly all actives have a fitted effect of over 50% in size
Conditions: HEK293 HTT promoter firefly luciferase reporter (activity 0% = vehicle and -100% = no light), 24 h; series mostly up to 57.5 µM; activity change, negative = inhibition: at the top concentration
Procedure, shortened: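 Firefly luciferase readout (Dual-Glo, 10 min RT) after 24 h, 37 °C compound exposure (final up to 57.5 uM) of HEK293 reporter cells cultured 24 h beforehand; PTC124 at 50 uM final as control inhibitor; activity scaled vehicle 0%, zero RLU -100%.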

Activity change, negative = inhibition, inactive:
Cc1cc(Br)ccc1NC(=O)CCS(=O)(=O)c1cccc2nsnc12 -19.9%
CC(=O)NCCNc1nc2c(S(=O)(=O)c3ccc(C)c(C)c3)nnn2c2ccc(Cl)cc12 12.6%
Cc1ccc(C(C)C)c(OCC(=O)Nc2ccc(S(=O)(=O)Nc3onc(C)c3C)cc2)c1 4.23%
N#Cc1ccc(CN2C(=O)c3ccccc3Sc3ccc(C(=O)OCc4ccco4)cc32)cc1 -19%
Cc1ccc(C2c3c(oc4ccccc4c3=O)C(=O)N2c2ccc(C)cn2)cc1 (centres undefined) -9.11%
CCOc1ccc2nc(NC(=O)CS(=O)(=O)c3ccc(Cl)cc3)sc2c1 -20.3%
Cc1ccc(-c2nnc(C3CCN(S(=O)(=O)c4ccc(C)c(C)c4)CC3)o2)cc1 -11.6%
CCOc1ccccc1NC(=O)CN1C(=O)CC(c2ccc(OC)c(OC)c2)Sc2ccccc21 (centres undefined) -29.7%
Cn1c(-n2cccc2)c(-c2c(-c3ccccc3)[nH]c3c2c(=O)n(C)c(=O)n3C)c(=O)n(C)c1=O -4%
CCCCOC(=O)c1ccc(NC(=O)CSc2nc3c(c(=O)[nH]2)CCCC3)cc1 -16.1%
Cc1ccccc1CN1C(=O)c2ccccc2Sc2ccc(C(=O)NC(C)c3ccccc3)cc21 (centres undefined) -27.3%
CCN1CCOC(=O)C1CC(=O)Nc1cc(C)cc(C)c1 (centres undefined) 0%
O=C(NCc1ccc(F)cc1)c1cc2c(=O)n3ccccc3nc2s1 13%
Cc1ccc(CNC(=O)Cn2c(=O)n(-c3ccc(Cl)cc3)c(=O)c3c(C)c(C)sc32)cc1 -6.59%
COc1ccc(OC)c(/C=C(/C#N)c2nc(-c3ccc(-c4ccccc4)cc3)cs2)c1 -9.22%
Cc1cc(C)cc(NS(=O)(=O)c2ccc3[nH]cc(C(=O)N(C)Cc4ccccc4)c(=O)c3c2)c1 -5.21%
CCCCNc1nc2c(S(=O)(=O)c3ccc(C)c(C)c3)nnn2c2ccsc12 -23.9%
COc1cc(Nc2ncc3c(n2)CCN(Cc2cc(Br)cs2)C3)cc(OC)c1 -16.6%
COC(=O)c1ccccc1NC(=O)c1ccc2c(c1)CCN2S(C)(=O)=O -13.2%
Cc1cc(Nc2ccc(F)cc2)n2c(nc3ccccc32)c1C#N -23.5%
Cc1ccc(CSc2nc3c([nH]c4ccccc43)c(=O)n2C)cc1 0.365%
Cc1c(-c2nc(-c3ccccc3)no2)nnn1-c1cccc(C(F)(F)F)c1 20.7%
COc1ccccc1CNC(=O)c1ccc2c(c1)nc(C)n2-c1ccccc1OC -0.899%
Cc1nn2c(-c3ccco3)ccnc2c1-c1ccc(F)cc1 9.6%
Cc1nc2ccccn2c(=O)c1NC(=O)c1ccc(C(F)(F)F)cc1 13.9%
COc1ccc(NC(=O)c2cccn2-c2nnc(N3CCCCC3)s2)cc1Cl -35.9%
CCOc1ccccc1OCCN[C@H](C)Cc1ccc(OC)c(S(N)(=O)=O)c1 -5.17%
Cc1ccc(NC(=O)Cn2c(=O)n(CCCCC(=O)NCc3ccccc3Cl)c(=O)c3ccccc32)cc1C 2%
CCOc1ccc(NC(=O)Cn2c(C)cc3ccccc3c2=O)cc1 -8.43%
O=C(O)c1ccc(-n2c(/C=C\c3ccc(O)cc3)nc3ccccc3c2=O)cc1 -14.6%
Cc1ccc(C2=Nc3ccccc3N(CC(=O)NCc3ccc(F)cc3)C(=O)C2)cc1C 44.2%
CCOC(=O)c1ccccc1NC(=O)c1sc2ncn(Cc3cccc(F)c3)c(=O)c2c1C -9.27%
CC1=C(C(=O)Nc2cccnc2)C(c2ccc(Cl)cc2)n2nc(-c3ccccc3)nc2N1 (centres undefined) -18.6%
COc1ccc(OC)c(S(=O)(=O)NCc2cccn2Cc2cccc(C)c2)c1 -13.5%
COc1cn(CC(=O)Nc2cccc(C)c2C)c(CN2CCCCC2)cc1=O -17.1%
Cc1ccc(C)c(NC(=O)CSc2c3c(nc4ccc(Cl)cc24)CCCC3)c1 -11.1%
COc1ccc(C(=O)Nc2cccc(OCc3cc(=O)n4c5c(sc4n3)CCCC5)c2)cc1 -13.5%
Cn1c(=O)c2c(nc3n(-c4ccc(O)cc4)c(-c4ccc(Br)cc4)cn23)n(C)c1=O 4.58%
CCn1cc(C(=O)O)c(=O)c2cnc(N3CCCC3)nc21 3.13% [at 11.5 µM]
COc1ccc(CNC(=O)CSc2nc3ccccc3nc2Cc2ccccc2OC)cc1 -6.41%
COC(=O)c1sc(NC(=O)/C=C/c2ccc(OC)c(OC)c2)c(C(=O)OC)c1C 29.9%
COc1cccc(C(=O)c2cn(CC(=O)NCc3ccccc3)c3nc(C)ccc3c2=O)c1 -0.278%
COc1ccc(OCc2nc3c4c(-c5ccccc5)c(-c5ccccc5)oc4ncn3n2)cc1 17%
CC(C)NC(=O)CCCN1C(=O)CCn2nc(-c3cccn3C)cc21 1.39%
CCN1CCN(c2cc3c(cc2F)c(=O)c(S(=O)(=O)c2ccccc2)cn3C)CC1 -9.27%
COc1ccccc1NC(=O)CSc1nc2ccccc2c2nc(-c3ccccc3)nn12 4.94%
Cc1[nH]c2ccccc2c1C1N2CC3(C)CN1CC(C)(C2)C3=O (centres undefined) -0.595%
Cc1nn(C)c2c1c(C(F)(F)F)cc(=O)n2C(C)C(=O)NCc1ccc(Cl)cc1 (centres undefined) -4.86%
O=C(Nc1ccc(Br)cc1F)N1CCC(CN2CCCC2)CC1 -23.3%
O=S(=O)(O)CCS
Cc1cccc(CNC(=O)CSCc2cnn(-c3ccccc3)c2-n2cccc2)c1 -23.8%
CCOC(=O)c1ccc(NS(=O)(=O)c2cc(-c3onc(C)c3C)ccc2C)cc1 -19.6%
COc1cc(OC)c(C2Nc3c(C)cccc3-c3cc(C)nn32)cc1OC (centres undefined) -28.1% [at 11.5 µM]
CC1(C)SCCN(S(=O)(=O)c2ccc(OCC#CCO)cc2)[C@@H]1C(=O)NO 1.99%
CC1=C(c2ccc(C)cc2)S(=O)(=O)NC1=NCc1cccc(F)c1 -17%
CCN1c2ccccc2-c2nc(SCC(=O)NCc3ccc(C)cc3)ncc2S1(=O)=O -22.4%
CCOC(=O)c1ccc(NC(=O)Cn2cc(C(=O)c3ccc(CC)cc3)c(=O)c3ccc(C)nc32)cc1 -3.5%
COc1ccc(CNC(=O)c2cnc3sc(N4CCCCCC4)nn3c2=O)cc1 10.1%
Cc1sc2ncn(CC(=O)N3CCN(c4ccc(F)cc4)CC3)c(=O)c2c1S(=O)(=O)N1CCC(C)CC1 -27.5%
COC(=O)C1=C(c2ccccc2)c2ccccc2S(=O)(=O)N1CC(=O)Nc1ccc(F)c(F)c1 -33.8%
Cc1ccc(CNC(=O)Cn2c(=O)cc(C(F)(F)F)c3c(C)nn(C)c32)cc1 -18.2%
CCOc1ccc(-c2nc(Cn3c(=O)cc(-c4ccccc4)c4c(C)nn(C)c43)c(C)o2)cc1 25.7%
CCOc1ccc(NC(=O)CN(c2ccc(CC)cc2)S(=O)(=O)c2c(C)noc2C)cc1 -25.8%
Cc1ccc(CNC(=O)C2CCN(S(=O)(=O)c3c(C)noc3/C=C/c3cccs3)CC2)cc1 -15.2%
O=C(CCS(=O)(=O)c1cc2c(cc1Cl)NC(=O)CO2)NCc1ccccc1Cl -5.16%
CC(C)Oc1ccc(CNC(=O)c2ccc(CN3CC(=O)N4CCCCC4C3=O)cc2)cc1 (centres undefined) -12.6%
Oc1c(C(c2ccc(Cl)cc2Cl)N2CCN(c3ccccc3)CC2)sc2nc(-c3ccco3)nn12 (centres undefined) -12.5%
CSc1ncc(C(=O)NCc2cccc(F)c2)c(-c2ccccc2)n1 -5.99%
O=c1c2oc3ccccc3c2n(Cc2ccccc2Cl)c(=O)n1Cc1ccco1 -9.44%
COc1ccc(CN(Cc2ccco2)c2cnc(S(C)(=O)=O)nc2C(=O)Nc2ccc(C)c(Cl)c2)cc1 -27.6%
Cc1ccc(NC(=O)c2cnn3c(C(F)F)cc(-c4ccccc4)nc23)cc1F -2.33%
CC(C)Oc1ccc(C(=O)N2CCN(CCc3ccccn3)CC2)cc1 -16.2%
CC1CCc2nn(CC(=O)Nc3ccccc3Cl)cc2C1 (centres undefined) 3.19%
CCOc1ccc(NC(=O)NCCc2c(C)nn(C)c2C)cc1 10.8%
Cc1c(C2=CCN(S(=O)(=O)c3cccc(Cl)c3)CC2)c2ccccc2n1CC(=O)N1CCCC1 -41.7%
Cc1ccc(NC(=O)C(C)Sc2nc(=O)cc(N)n2-c2cccc(C)c2)cc1 (centres undefined) -25%
COc1cccc(S(=O)(=O)N2CCN(Cc3ccc4c(c3)OCO4)CC2)c1 -21.5%
CCc1ccc(-c2nc3c(c(SCc4ccccc4F)n2)Cc2c(CO)cnc(C)c2O3)cc1 -6.07%
Cc1cccc(N2CCN(S(=O)(=O)c3ccc(-c4cc(C(F)(F)F)on4)s3)CC2)c1C -2.55%
Cc1ccccc1OCC(=O)Nc1ccc2nc(SCC(=O)N3CCc4ccccc43)sc2c1 -15.9%
O=C(C1CCCN(S(=O)(=O)c2ccc(Br)s2)C1)N1CCN(c2cccc(Cl)c2)CC1 (centres undefined) -23.1%
COc1cccc(C2C(C(=O)Nc3ccc(Cl)cc3)=C(C)Nc3nc4ccccc4n32)c1 (centres undefined) -14.5%
OCc1cc(C(O)CNCCCCCCOCCCCc2ccccc2)ccc1O (centres undefined) -8.17%
CCC(C)Sc1oc(-c2ccco2)nc1S(=O)(=O)c1ccc(C)cc1 (centres undefined) -30.5%
Cc1ccc(CNc2ncnc3c2cnn3-c2ccc(Cl)cc2)cc1 5.2%
COc1ccccc1C1Nc2c(sc3nc(C)cc(C)c23)C(=O)N1c1ccccc1 (centres undefined) 37.4%
COc1ccc2c(c1)c1c(c(=O)n(-c3ccc(C)cc3)c(=O)n1CC(=O)NCc1ccc(C)cc1)n2C -3.36%
COc1ccc(OCC(=O)Nc2cc(-c3nc4ccccc4s3)ccc2C)cc1 67.3%
CC(=O)OCC(=O)[C@@]12N=C(C)O[C@@H]1C[C@H]1[C@@H]3CCC4=CC(=O)C=C[C@]4(C)[C@H]3[C@@H](O)C[C@@]12C -1.6%
Cc1cc2c(cc1C)NC(CC(=O)Nc1cccc(Cl)c1)C(=O)N2 (centres undefined) -20%
O=C(O)Cc1sc(-c2ccccc2)nc1-c1ccc(Cl)cc1 3.1%
C=CCc1cccc2cc(C(=O)NCCc3c(C)[nH]c4c(C)cccc34)c(=O)oc12 -2.34%
CCN(CC)c1ccc(NC(=O)CCc2nc3cccnc3n2Cc2cccs2)c(C)c1 -16.7%
O=C(NCC(c1ccc2c(c1)OCO2)N1CCOCC1)C(=O)Nc1ccccc1 (centres undefined) -11.4%
